# Measurements taken from paper PMC4336329 (PLoS ONE, 2015).
# Hit rate of the full screen: of about 310,000 compounds, about 2,200 (0.71%) showed an effect of 50% or more. Effects have a minus sign here. Some of the results follow.
# Molecular target: human ether-à-go-go-related gene (hERG) potassium channel (human, UniProt Q12809)
# Experiment: primary screen, population patch clamp on CHO cells stably expressing hERG
# Chain of human ether-à-go-go-related gene (hERG) potassium channel (Q12809 whole entry, looked up): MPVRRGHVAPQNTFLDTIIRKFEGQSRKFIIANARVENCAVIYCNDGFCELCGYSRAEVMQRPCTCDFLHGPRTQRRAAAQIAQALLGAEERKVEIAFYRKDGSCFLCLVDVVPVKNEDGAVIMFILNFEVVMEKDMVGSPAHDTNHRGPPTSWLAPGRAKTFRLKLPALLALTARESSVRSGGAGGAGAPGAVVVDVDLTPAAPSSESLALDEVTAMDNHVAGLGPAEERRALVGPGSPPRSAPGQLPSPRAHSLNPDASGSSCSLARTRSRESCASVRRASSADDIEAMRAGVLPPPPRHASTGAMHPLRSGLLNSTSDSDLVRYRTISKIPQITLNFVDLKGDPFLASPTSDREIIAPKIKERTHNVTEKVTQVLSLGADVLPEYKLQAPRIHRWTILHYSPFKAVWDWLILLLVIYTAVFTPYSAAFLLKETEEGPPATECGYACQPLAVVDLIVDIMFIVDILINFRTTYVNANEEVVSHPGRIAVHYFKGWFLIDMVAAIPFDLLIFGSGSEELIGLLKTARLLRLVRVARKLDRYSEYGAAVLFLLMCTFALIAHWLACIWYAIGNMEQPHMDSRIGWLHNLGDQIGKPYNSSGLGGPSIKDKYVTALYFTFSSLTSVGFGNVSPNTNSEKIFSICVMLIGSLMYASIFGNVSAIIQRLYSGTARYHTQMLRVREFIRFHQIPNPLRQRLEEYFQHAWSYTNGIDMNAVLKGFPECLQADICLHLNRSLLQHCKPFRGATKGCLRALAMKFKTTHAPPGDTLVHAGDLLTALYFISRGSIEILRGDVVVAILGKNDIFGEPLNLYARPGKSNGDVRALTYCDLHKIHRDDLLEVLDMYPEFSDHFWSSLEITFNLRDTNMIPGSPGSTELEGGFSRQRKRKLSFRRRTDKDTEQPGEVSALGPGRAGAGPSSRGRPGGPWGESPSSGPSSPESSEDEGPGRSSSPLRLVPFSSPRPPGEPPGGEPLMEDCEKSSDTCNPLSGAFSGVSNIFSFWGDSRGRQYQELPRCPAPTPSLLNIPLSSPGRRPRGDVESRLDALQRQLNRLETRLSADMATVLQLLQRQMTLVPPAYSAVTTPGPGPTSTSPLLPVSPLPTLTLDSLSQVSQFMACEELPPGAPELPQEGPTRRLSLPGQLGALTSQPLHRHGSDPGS
row,SMILES,"hERG current change (%, negative = inhibition) at 1uM [%]"
1,CC(C)(C)OC(=O)N1CCOCCOCCN(C(=O)OC(C)(C)C)CCOCCOCC1,9.77
2,COc1ccc(/C=N/NC(=O)c2ccccc2)cc1OS(=O)(=O)c1ccccc1,6.08
3,CC(C)Sc1snnc1-c1ccccc1,10.7
4,COc1ccc(C)cc1N(C(=O)CNC(=O)c1ccco1)C(C(=O)NC1CCCC1)c1cccnc1 (stereo not shown),20.4
5,N#Cc1cccc(C(c2nnnn2CCc2ccccc2)N2CCN(C3CCCCC3)CC2)c1 (stereo not shown),-18.3
6,O=[N+]([O-])c1ccc(COc2ncnc3ccccc23)cc1,-19.5
7,O=C(Nc1ccc(C(=O)N2CCOCC2)cc1)c1cccc(Br)c1,9.44
8,CC1CC(=O)Nc2ccccc2N1C(=O)CSc1nnnn1C(C)C (stereo not shown),16.7
9,COc1ccc(C(=S)N(C)C)cc1OC,4.46
10,C=C(C(=O)c1ccccc1)C(C(=C)C(=O)c1ccccc1)c1ccc(OC)cc1,7.52
11,Cc1cc(=O)oc2cc(OCc3ccc(C(=O)OCC(=O)Nc4ccccc4OC(F)F)cc3)ccc12,5.85
12,O=S(=O)(NCCc1csc(-c2cccnc2)n1)c1ccc(F)cc1,11
13,CCOC(=O)C1CCCN(Cc2c(C(=O)N3CCCCC3)nc3c(C)cccn23)C1 (stereo not shown),5.41
14,COc1cc2cc(-c3ccc(OC)c(OC)c3C)nc(N)c2cc1OC,-4.84
15,C=C(C)CSc1nc2c(c(=O)[nH]c(=O)n2C)n1CCC(C)C,7.4
16,O=C(Nc1nccs1)C(=O)c1c[nH]c2ccccc12,16.9
17,COc1ccc(CC(=O)O/N=C(\N)c2ccncc2)cc1,8.17
18,CCC(C)C(NC(=O)c1ccccc1)C(=O)Nc1ccc(S(=O)(=O)Nc2cc(C)nc(C)n2)cc1 (stereo not shown),10.4
19,O=C(CC1C(=O)NCCN1Cc1ccccc1C(F)(F)F)NC1CCC1 (stereo not shown),16.7
20,COc1cccc(NC(=O)c2ccccc2-c2nc(-c3ccc(F)cc3)no2)c1,10.3
21,CCN(Cc1ccccc1)C(c1cccs1)c1nnnn1C1CCCCC1 (stereo not shown),16.9
22,CN(C)Cc1c(O)ccc2oc(Cc3ccccc3)cc12,-0.619

row,SMILES,"hERG current change (%, negative = inhibition) at 1uM [%]"
1,Cc1ccc2[nH]c(=O)c(CC(=O)O)c(-c3ccccc3)c2c1,13.3
2,COc1cccc(OCc2cc(C(=O)N3CCN(C4CCCC4)CC3)no2)c1,12.5
3,CCn1cc(C(=O)N2CCCC2)c(=O)c2cc(S(=O)(=O)N3CC(C)CC(C)C3)ccc21 (stereo not shown),11.9
4,O=C(NC(Cc1ccccc1)C(=O)O)/C(=C/c1ccc(F)cc1)NC(=O)c1ccccc1 (stereo not shown),14.9
5,O=C(Cn1nc(-c2nn(CC(=O)c3ccccc3)c3[n+]2CCCCC3)[n+]2c1CCCCC2)c1ccccc1.[Br-],12.7
6,C[C@H](C(=O)O)c1ccc(-c2ccccc2)c(F)c1,8.62
7,Cc1[nH]c2ccc(C(=O)NCCN3CCOCC3)cc2c1C,15.7
8,C[C@H](NC(=O)c1cc2cc(Cl)ccc2n1C)C(=O)N[C@@H](C(=O)O)c1ccccc1,15.3
9,NC(=S)NC(=O)/C=C/c1ccccc1,10.1
10,CCC(C)[C@H](NC(=O)Nc1ccc(C)cc1C)C(=O)O (stereo partly shown),-8.67
11,CCc1nc(SCC(=O)c2ccc(C)c(C)c2)n[nH]1,13.5
12,Cc1csc(NC(=O)c2nc3nc(C)cc(C)n3n2)n1,5.55
13,COc1ccc(S(=O)(=O)N2CCOCC2)cc1C(=O)Nc1cc(C)on1,11.8
14,Cc1onc(-c2ccccc2)c1C(=O)N/N=C/C(Br)=C/c1ccccc1,5.2
15,CCOC(=O)NCc1ccc(S(=O)(=O)Nc2ccc(C)cc2)cc1,9.48
16,COc1ccc2oc(C(=O)NCC3CCCO3)c(C)c2c1 (stereo not shown),0.884
17,COc1cc2nc(N3CCN(c4cc(C)ccc4C)CC3)nc(N)c2cc1OC.Cl,10.7
18,CCC(=O)NC(=S)Nc1ccc(NC(=O)c2cccnc2)cc1,7.36
19,CCC1CCC(C(=O)NC(C(=O)Nc2ccc3c(c2)OCCO3)C(C)C)CC1 (stereo not shown),4.93
20,COC(=O)c1ccc(NC(=O)C2CCCCC2C(=O)O)cc1 (stereo not shown),21.9
21,COc1ccsc1C(=O)Nc1ccc(F)cc1F,12.8
22,O=C1CC(N2CCN(c3cccc(C(F)(F)F)c3)CC2)C(=O)N1c1ccccc1F (stereo not shown),7.3

row,SMILES,"hERG current change (%, negative = inhibition) at 1uM [%]"
1,CCCCCCn1c(N(CC)CC)nc2c1c(=O)[nH]c(=O)n2C,-11.6
2,CC(=O)c1sc(C(=O)O)c(-c2ccco2)c1-c1ccco1,11.9
3,COCc1c(C(=O)NCCOc2ccc(Cl)cc2)oc2ccccc12,2.54
4,Cc1cccc(OCC(=O)OCC(=O)c2c(N)n(C)c(=O)n(C)c2=O)c1C,8
5,CCOC(=O)/C(C#N)=C/c1cc2cc(C)c(C)cc2nc1Cl,5.2
6,COc1cccc(CNC(=O)COc2ccc(C(=O)c3ccccc3)cc2)c1,6.67
7,COc1ccc(-n2cnc3cc(NS(=O)(=O)c4ccccc4)ccc32)cc1,10.8
8,N#Cc1ccc2c(c1)nnn2-c1ccccc1,6.38
9,Cc1ccc(C(=O)c2c(NC(=O)CSc3nnc(N)s3)sc3c2CCCC3)cc1,12.6
10,O=C(O)Cc1ccc2sc(-c3ccccc3)nc2c1,12.9
11,O=C(NCc1cccs1)c1ccc(N2CCCC2=O)cc1,9.91
12,CC(C)CCC(C(=O)[O-])C(C)CC(=O)NNC(=O)c1ccco1.[Na+] (stereo not shown),12.4
13,O=C(COC(=O)C1(c2ccc(Cl)cc2)CCCC1)Nc1ncc(C(F)(F)F)cc1Cl,5.56
14,O=C(NN1CCOCC1)c1cccc(F)c1,12.7
15,O=C(NCCCn1ccnc1)Nc1ccc(Cl)cc1Cl,3.68
16,COc1ccc(S(=O)(=O)Nc2ccccc2C(=O)NCc2cccnc2)cc1C,5.06
17,Cc1cccc(C)c1OCC(O)CN1CCC(CN2C(=O)c3cccc4cccc(c34)C2=O)CC1.Cl (stereo not shown),-17.1
18,COCCN(C(=O)CSc1nnc(-c2ccccc2F)n1C)c1c(N)n(Cc2ccccc2)c(=O)[nH]c1=O,-2.28
19,COc1ccc(NC(=O)c2ccccc2Oc2ccccc2)cc1,14.2
20,Cc1cc2nc3c(=O)[nH]c(=S)[nH]c3nc2cc1NC(=O)C(F)(F)F,16.3
21,O=C(/C=C/c1ccccc1F)N1CCN(c2ccccn2)CC1,9.99
22,COc1ccccc1CCC(=O)Nc1ccc(C)cc1Cl,9.38

row,SMILES,"hERG current change (%, negative = inhibition) at 1uM [%]"
1,O=C(COc1cccnc1[N+](=O)[O-])c1ccc(Cl)s1,14.8
2,COC(=O)C1=C(C)N(Cc2ccco2)C(=O)N[C@@H]1c1cccc(C(F)(F)F)c1,10.6
3,CCOC(=O)C1=C(COC(=O)c2ccccc2[N+](=O)[O-])NC(=O)NC1C (stereo not shown),13.3
4,CCC1(c2ccccc2)NC(=O)N(CC(=O)c2ccc3c(c2)OCO3)C1=O (stereo not shown),7.49
5,CN1CCc2c(OCC(=O)N3CCCc4ccccc43)cccc2C1=O,5.91
6,C[n+]1c(-c2ccccc2)cc(-c2ccc(O)cc2)cc1-c1ccccc1.[O-][Cl+3]([O-])([O-])[O-],-13.9
7,CC1CC(C)CN(C(=O)COC(=O)c2cc(S(=O)(=O)N3CCOCC3)ccc2F)C1 (stereo not shown),6.41
8,CCCCOC(=O)Nc1nnc(SCCOc2ccc(C)cc2)s1,9.95
9,O=C(O)CCC(=O)NNC(=O)CCC(=O)Nc1ccccc1,17.2
10,O=c1c2ccccc2nc(CSc2ncnc3nc[nH]c23)n1-c1ccccc1,16.7
11,O=C(CCCC(=O)NC1CCCCC1)Nc1ccc([N+](=O)[O-])cc1,-6.68
12,Cl.NCCc1ccn[nH]1,14
13,N=C1S/C(=C\c2ccccc2)C(=O)N1c1ccc(F)cc1,5.85
14,NC(=S)N/N=C/c1ccc(Br)o1,6.11
15,COc1ccc(N2CCN(C(=O)CCC(=O)c3cc(C)sc3C)CC2)cc1,2.6
16,COc1ccc(C(O)Cn2ccsc2=NC(C)=O)cc1 (stereo not shown),14
17,CC1(c2ccc3ccccc3c2)NC(=O)N(CC(=O)N2CCCC(C(F)(F)F)C2)C1=O (stereo not shown),1.14
18,O=C(Cn1cnc2ccccc2c1=O)Nc1ccc(-c2nnc3n2CCCCC3)cc1,0.623
19,CCc1nc2c(s1)CCc1onc(-c3ccc(Cl)cc3)c1-2,8.93
20,CC(C)Oc1cccc(C(=O)C2CCCN(C(=O)c3ccccn3)C2)c1 (stereo not shown),9.99
21,COc1ccc(C2=NOC(Cn3nc(C(=O)NCC4CC4)cc3-c3ccccc3)C2)cc1 (stereo not shown),-2.34
22,CCCCNC(=O)[C@@H]1CCCN1S(=O)(=O)c1cccc2cccnc12,9.23
